Test results as given in PMC11509758, “New Fusarochromanone Derivatives from the Marine Fungus Fusarium equiseti UBOCC-A-117302” (Marine Drugs, 2024).
Converted amounts (≈) assume the structure as drawn. Where two headings read alike, the source gives them in different places.

Key:
[1] = tested on: hTERT RPE-1 cells; conditions: read-out: EC50 (µM) RPE-1; 48 h incubation, doses up to 50 µM, MTS
[2] = tested on: HCT-116 cells; assay: cells; conditions: Homo sapiens, HCT-116, 48 h, read-out: EC50 (µM) HCT-116
[3] = tested on: U-2 OS cells; assay: Cell viability, MTS reduction assay, U2OS; conditions: read-out: EC50 (µM) U2OS, 48 h incubation, doses up to 50 µM
[4] = biological target: ABL1 (Homo sapiens, UniProt P00519); assay: ADP-Glo kinase inhibition assay, ABL1; type: biochemical; conditions: 10 µM ATP, duplicate; read-out: IC50 against ABL1
Sequence of ABL1 (P00519 whole entry): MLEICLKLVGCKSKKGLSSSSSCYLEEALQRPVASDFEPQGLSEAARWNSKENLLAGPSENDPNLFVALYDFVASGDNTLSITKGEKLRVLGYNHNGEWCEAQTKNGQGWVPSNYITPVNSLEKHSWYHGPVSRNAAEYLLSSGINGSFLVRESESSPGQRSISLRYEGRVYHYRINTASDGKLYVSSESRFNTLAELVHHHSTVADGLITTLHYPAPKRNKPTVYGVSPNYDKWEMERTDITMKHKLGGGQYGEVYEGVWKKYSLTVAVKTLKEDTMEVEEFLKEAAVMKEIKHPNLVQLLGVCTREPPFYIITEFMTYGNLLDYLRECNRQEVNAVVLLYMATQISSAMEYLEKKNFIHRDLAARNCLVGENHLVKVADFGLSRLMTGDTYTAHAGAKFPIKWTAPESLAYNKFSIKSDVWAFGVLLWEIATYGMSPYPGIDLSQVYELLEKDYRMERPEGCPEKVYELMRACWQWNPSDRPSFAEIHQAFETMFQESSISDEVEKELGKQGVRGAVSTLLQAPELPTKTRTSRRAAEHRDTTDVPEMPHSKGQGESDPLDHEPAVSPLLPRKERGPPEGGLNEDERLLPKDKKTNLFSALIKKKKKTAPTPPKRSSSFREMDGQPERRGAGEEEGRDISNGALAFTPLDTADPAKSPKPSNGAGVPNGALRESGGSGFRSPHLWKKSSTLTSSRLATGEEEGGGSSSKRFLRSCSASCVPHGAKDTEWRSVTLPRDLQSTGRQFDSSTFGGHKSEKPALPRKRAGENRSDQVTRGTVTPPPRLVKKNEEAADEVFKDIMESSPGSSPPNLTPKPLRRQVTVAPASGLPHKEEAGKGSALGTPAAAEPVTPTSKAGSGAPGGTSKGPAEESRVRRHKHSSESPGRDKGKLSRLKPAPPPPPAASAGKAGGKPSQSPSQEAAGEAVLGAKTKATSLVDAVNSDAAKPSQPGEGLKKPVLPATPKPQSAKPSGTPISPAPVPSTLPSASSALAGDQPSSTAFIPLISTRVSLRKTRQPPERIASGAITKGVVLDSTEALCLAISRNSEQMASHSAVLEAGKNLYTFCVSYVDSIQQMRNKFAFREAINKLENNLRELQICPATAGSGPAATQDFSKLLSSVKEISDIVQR
Protocol: (§1) The inhibitions of the kinase enzymatic activities were measured in 384-well plates using the ADP-GloTM assay kit (Promega, Madison, WI, USA) according to the recommendations of the manufacturer. This luminescent ADP detection assay is described in Zegzouti et al.. The protocols used to measure the enzymatic activity of kinases analyzed in this study are described in […] et al. except for human EGFR and EphB1 (both are recombinant, expressed by baculovirus in Sf9 insect cells). […] Kinase buffer “A”: 10 mM MgCl2, 1 mM EGTA, 1 mM DTT, 25 mM Tris-HCl pH 7.5, 50 μg.mL^-1 heparin. Kinase reactions were carried out with either protein or peptide as substrate in the presence of 10 μM ATP. Peptide substrates were obtained from Proteogenix (Schiltigheim, France). The transmitted signal was measured using the Envision (PerkinElmer, Waltham, MA, USA) microplate luminometer and expressed in Relative Light Units (RLUs). To determine the half-maximal inhibitory concentration (IC50), the assays were performed in duplicate with increasing doses of the tested compounds. Kinase activities are expressed in % of maximal activity, i.e., measured without the tested compound but with a similar dose of DMSO. To validate each kinase assay, the following model inhibitors were used under the same conditions as the tested compounds: Barasertib (AZD1152-HQPA, #S1147, Selleckchem) for Aurora kinase B (AURKB); […] […]

[5] = biological target: T1, JAK3 (Homo sapiens, UniProt P52333); assay: ADP-Glo kinase inhibition assay, JAK3; type: biochemical; conditions: 10 µM ATP, duplicate; read-out: IC50 against JAK3
T1 sequence (P52333 1-1124): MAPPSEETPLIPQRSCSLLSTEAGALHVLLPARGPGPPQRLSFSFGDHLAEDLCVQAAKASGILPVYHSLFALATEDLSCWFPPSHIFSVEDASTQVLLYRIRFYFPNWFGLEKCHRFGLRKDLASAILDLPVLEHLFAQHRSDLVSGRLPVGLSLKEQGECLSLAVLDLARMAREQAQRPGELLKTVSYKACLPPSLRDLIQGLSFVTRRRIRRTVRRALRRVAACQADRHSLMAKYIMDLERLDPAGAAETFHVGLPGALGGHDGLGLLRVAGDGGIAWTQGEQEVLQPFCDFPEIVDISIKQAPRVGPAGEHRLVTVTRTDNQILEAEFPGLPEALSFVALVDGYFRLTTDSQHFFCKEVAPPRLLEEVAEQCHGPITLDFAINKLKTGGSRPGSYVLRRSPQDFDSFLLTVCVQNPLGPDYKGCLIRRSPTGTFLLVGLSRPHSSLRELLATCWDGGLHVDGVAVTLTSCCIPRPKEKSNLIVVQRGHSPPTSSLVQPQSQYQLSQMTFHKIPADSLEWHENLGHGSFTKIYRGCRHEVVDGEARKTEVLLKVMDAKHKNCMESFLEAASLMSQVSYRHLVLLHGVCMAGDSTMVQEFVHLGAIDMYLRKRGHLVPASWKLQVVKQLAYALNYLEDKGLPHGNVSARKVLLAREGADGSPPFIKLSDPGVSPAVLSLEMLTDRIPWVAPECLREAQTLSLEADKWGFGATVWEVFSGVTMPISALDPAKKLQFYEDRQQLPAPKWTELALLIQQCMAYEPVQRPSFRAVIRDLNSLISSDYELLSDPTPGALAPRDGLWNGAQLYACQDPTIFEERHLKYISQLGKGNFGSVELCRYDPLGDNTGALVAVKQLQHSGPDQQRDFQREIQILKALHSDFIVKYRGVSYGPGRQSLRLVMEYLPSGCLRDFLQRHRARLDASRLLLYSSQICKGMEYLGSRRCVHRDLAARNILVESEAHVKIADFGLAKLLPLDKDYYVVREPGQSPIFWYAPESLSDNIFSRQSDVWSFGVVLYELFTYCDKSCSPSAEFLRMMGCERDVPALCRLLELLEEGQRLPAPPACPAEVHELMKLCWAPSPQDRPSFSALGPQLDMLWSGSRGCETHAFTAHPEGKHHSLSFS
Protocol: as §1

[6] = tested on: Listeria monocytogenes SOR 100; assay: Micro-broth dilution MBC/MIC, L. monocytogenes; type: cell-based; conditions: for MIC: SOR100, bacteriostatic, micro-broth dilution
Protocol: (§2) MBC/MIC values of compounds 1 to 8 were determined using micro-broth dilution methods on E. coli ATCC25922, S. enterica CIP8297, P. aeruginosa ATCC27853, S. aureus ATCC25923, E. faecalis CIPA186, B. cereus ATCC6464, L. monocytogenes SOR100, and C. albicans ATCC2092. Experiments were performed as described in CLSI standard M07-A9: methods for dilution antimicrobial susceptibility tests for bacteria that grow aerobically. Briefly, wells of a 96-well microplate containing 1.0 × 10^6 CFU/mL of each bacterial target were supplemented with a 2-fold serial dilution of each pure compound ranging from 250 μM to 0.12 μM. […] Each analysis was processed in triplicate.

[7] = tested on: Enterococcus faecalis CIP A 186; assay: Micro-broth dilution MBC/MIC, E. faecalis; type: cell-based; conditions: for MBC/MIC (µM) E. faecalis CIP A 186: CLSI micro-broth dilution, 250 to 0.12 µM; for MIC: Enterococcus faecalis
Protocol: as §2

[8] = tested on: Bacillus cereus ATCC 6464; assay: Micro-broth dilution MBC/MIC, B. cereus; type: cell-based; conditions: for MBC/MIC (µM) B. cereus ATCC 6464: CLSI micro-broth dilution, 250 to 0.12 µM
Protocol: as §2

[9] = biological target: T2, human EphB1 (Homo sapiens, UniProt P54762); assay: ADP-Glo kinase inhibition assay, EphB1; type: biochemical
T2 construct: host or cells: Sf9 insect cells (baculovirus)
T2 sequence (P54762 18-984): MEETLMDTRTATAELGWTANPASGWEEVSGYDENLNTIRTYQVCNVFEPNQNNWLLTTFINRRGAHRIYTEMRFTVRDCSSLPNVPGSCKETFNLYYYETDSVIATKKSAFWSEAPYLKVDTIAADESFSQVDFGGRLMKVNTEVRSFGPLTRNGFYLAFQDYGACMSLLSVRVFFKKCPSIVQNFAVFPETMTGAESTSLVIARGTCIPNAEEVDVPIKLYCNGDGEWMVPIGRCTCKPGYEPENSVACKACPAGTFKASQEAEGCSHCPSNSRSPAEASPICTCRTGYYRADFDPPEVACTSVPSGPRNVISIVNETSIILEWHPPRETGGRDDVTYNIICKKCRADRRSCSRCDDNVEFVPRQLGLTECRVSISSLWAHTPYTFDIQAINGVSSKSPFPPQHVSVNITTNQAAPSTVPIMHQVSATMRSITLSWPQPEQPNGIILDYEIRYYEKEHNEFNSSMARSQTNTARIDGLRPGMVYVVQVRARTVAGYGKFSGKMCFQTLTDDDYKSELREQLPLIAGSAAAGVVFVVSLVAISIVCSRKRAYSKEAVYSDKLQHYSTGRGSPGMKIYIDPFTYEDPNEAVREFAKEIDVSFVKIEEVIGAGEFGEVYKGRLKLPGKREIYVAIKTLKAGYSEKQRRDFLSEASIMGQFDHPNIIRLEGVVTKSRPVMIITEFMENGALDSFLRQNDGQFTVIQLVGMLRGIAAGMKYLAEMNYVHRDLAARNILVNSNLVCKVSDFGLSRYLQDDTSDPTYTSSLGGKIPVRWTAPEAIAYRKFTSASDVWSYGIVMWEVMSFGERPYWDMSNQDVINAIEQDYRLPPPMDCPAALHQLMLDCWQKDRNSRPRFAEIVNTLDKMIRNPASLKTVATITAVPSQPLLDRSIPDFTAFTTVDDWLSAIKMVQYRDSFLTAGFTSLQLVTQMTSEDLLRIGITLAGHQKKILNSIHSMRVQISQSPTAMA
Protocol: as §1

[10] = tested on: Staphylococcus aureus ATCC25923; assay: Micro-broth dilution MBC/MIC, S. aureus; type: cell-based; conditions: up to 250 µM
Protocol: as §2

Compound	EC50 [1] [µM]	EC50 [2] [µM]	EC50 [3] [µM]	MIC [6] [µM]	other results
CC1(C)C=Cc2c(ccc(C(=O)CC(N)CO)c2N)O1 (stereo not drawn) [Compound 1, deacetylfusarochromene]	0.176	0.087	0.896	–	–
CC1(C)C=Cc2c(ccc(C(=O)/C=C/CO)c2N)O1 [Compound 2, deacetamidofusarochrom-2′,3-diene]	10	13.7	13.2	125 (≈ 32.4 µg/mL)	IC50 [4]: 23.8 µM; IC50 [5]: 25.5 µM; MBC/MIC (µM) E. faecalis CIP A 186 [7]: (−) ((−) indicates that no activity was visualized at the highest concentration (250 µM)); MBC/MIC (µM) B. cereus ATCC 6464 [8]: (−) ((−) indicates that no activity was visualized at the highest concentration (250 µM))
CC(=O)N[C@@H](CO)CC(=O)c1ccc2c(c1N)C(=O)CC(C)(C)O2 [Compound 3, fusarochromanone TDP-2]	23.1	63	35.1	–	–
CC(=O)N[C@@H](CO)CC(=O)c1ccc2c(c1N)C=CC(C)(C)O2 [Compound 4, fusarochromene]	16.7	84.4	39.8	125 (≈ 39.8 µg/mL)	MBC/MIC (µM) E. faecalis CIP A 186 [7]: (−) ((−) indicates that no activity was visualized at the highest concentration (250 µM)); MBC/MIC (µM) B. cereus ATCC 6464 [8]: (−) ((−) indicates that no activity was visualized at the highest concentration (250 µM))
CC1(C)CC(=O)c2c(ccc(C(=O)/C=C/CO)c2N)O1 [Compound 5, 2,2-dimethyl-5-amino-6-(2′E-ene-4′-hydroxylbutyryl)-4-chromone]	5.22	8.04	7.35	–	IC50 [5]: 25.2 µM; IC50 ([9]; 10 µM ATP, duplicate, read-out: IC50 against EphB1): 1.42 µM; IC50 ([9]; printed in the curve of Figure 4C, read-out: Hs_EphB1 IC50): 1.42 µM
CC1(C)CC(=O)c2c(ccc(C(=O)C[C@@H](N)CO)c2N)O1 [Compound 6, fusarochromanone]	0.058	0.17	0.232	–	–
C[C@H](O)c1nc(=O)c2ccccc2[nH]1 [Compound 7, (−)-chrysogine]	> 25	> 25	> 25	–	–
C/C=C/[C@@H]1C=C[C@@H]2C[C@H](C)CC[C@H]2[C@]1(C)/C(O)=C1\C(=O)[C@H](CO)N(C)C1=O [Compound 8, equisetin]	> 25	> 25	> 25	–	MBC ([6]; SOR100, read-out: MBC Listeria monocytogenes): 31.2 µM (≈ 11.7 µg/mL); MIC ([7]; CIPA186, read-out: MIC Enterococcus faecalis): 31.2 µM (≈ 11.7 µg/mL); MBC ([8]; Bacillus cereus, ATCC6464, read-out: MBC Bacillus cereus): 7.8 µM (≈ 2.91 µg/mL); activity against S. aureus ATCC25923 [10]: no activity
CC[C@H]1OC(=O)[C@H](C)[C@@H](O[C@H]2C[C@@](C)(OC)[C@@H](O)[C@H](C)O2)[C@H](C)[C@@H](O[C@@H]2O[C@H](C)C[C@H](N(C)C)[C@H]2O)[C@](C)(O)C[C@@H](C)C(=O)[C@H](C)[C@@H](O)[C@]1(C)O [Erythromycin, reference compound]	–	–	–	1.36 (≈ 0.998 µg/mL)	MIC ([7]; CIPA186, bacteriostatic, micro-broth dilution, read-out: MIC Enterococcus faecalis): 5.44 µM (≈ 3.99 µg/mL); MIC ([8]; Bacillus cereus, ATCC6464, micro-broth dilution): 5.45 µM (≈ 4 µg/mL)
